US20200000825A1, “METHODS AND COMPOSITIONS FOR TREATING AND PREVENTING VIRAL INFECTIONS” (ENTERIN LABORATORIES, INC., priority 2009, published 2020)

Test system: RAW 264.7 macrophage line
Assay: Displacement of fluorescent membrane probes Trunc Cat Tail and H-Ras (Example 1)
Settings: squalamine 10 micromolar in culture medium

`CC(C)[C@@H](CC[C@@H](C)[C@H]1CC[C@H]2[C@@H]3[C@H](O)C[C@H]4C[C@@H](NCCCNCCCCN)CC[C@]4(C)[C@H]3CC[C@]12C)OS(=O)(=O)O` [Squalamine, squalamine] was tested, and the “Localization of H-Ras probe” value was “remains associated with the membrane” and the “Localization of Trunc Cat Tail probe” value was “displaced into the cytoplasm”.
